In paper PMC4336329 (PLoS ONE, 2015):
The campaign covered roughly 310,000 compounds. About 2,200 (0.71%) showed an effect of 50% or more. Effects have a minus sign here. The list shows a part of the results.

target: human ether-à-go-go-related gene (hERG) potassium channel (human, UniProt Q12809); test: primary screen, population patch clamp on CHO cells stably expressing hERG
Sequence (Q12809 whole entry, looked up): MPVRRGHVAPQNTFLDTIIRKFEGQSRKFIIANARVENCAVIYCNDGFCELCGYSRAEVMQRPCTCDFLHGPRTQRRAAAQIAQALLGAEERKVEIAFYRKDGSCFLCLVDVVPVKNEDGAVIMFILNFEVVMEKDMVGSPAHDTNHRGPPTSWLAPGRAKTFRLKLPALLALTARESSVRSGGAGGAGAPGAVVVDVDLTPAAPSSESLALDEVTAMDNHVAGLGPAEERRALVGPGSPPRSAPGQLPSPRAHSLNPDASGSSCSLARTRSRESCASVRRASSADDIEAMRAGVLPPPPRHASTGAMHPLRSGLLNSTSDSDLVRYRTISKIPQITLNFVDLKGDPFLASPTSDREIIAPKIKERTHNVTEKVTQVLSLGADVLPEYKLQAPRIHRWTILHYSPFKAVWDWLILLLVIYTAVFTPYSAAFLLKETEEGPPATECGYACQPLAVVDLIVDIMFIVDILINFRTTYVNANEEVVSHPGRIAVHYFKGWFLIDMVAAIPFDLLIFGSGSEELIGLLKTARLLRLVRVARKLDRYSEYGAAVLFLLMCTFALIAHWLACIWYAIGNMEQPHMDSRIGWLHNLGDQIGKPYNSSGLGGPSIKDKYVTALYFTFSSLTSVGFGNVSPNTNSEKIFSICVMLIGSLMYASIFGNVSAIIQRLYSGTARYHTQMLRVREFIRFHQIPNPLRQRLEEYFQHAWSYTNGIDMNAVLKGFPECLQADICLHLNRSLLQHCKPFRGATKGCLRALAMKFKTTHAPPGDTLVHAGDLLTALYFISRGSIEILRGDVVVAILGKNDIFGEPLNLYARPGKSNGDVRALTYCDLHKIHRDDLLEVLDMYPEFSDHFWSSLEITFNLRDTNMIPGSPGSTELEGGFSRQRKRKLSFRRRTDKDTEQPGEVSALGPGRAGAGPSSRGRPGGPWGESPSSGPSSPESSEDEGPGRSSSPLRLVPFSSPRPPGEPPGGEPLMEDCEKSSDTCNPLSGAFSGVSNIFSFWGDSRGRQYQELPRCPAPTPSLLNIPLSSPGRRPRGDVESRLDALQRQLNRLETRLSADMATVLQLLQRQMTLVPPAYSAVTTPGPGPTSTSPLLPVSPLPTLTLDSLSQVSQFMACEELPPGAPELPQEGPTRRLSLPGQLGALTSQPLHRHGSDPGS

Row | Compound | hERG current change (%, negative = inhibition) at 1uM [%]
1 | Cc1ccc(C(c2nnnn2CC2CCCO2)N2CCN(C(=O)c3ccco3)CC2)cc1 (centres unmarked) | 8.83
2 | COc1ccc2c(c1)C(=O)N(c1ccc(C)cc1C)C(=O)C2(C)C | 14.2
3 | CCCCn1c(N)c(N(CC(C)C)C(=O)CSc2ccccc2C)c(=O)[nH]c1=O | 1.42
4 | O=C(c1ccco1)N1CCN(Cc2cccc(F)c2)CC1 | 8.13
5 | O=C(C(=O)N1CCN(c2ccccc2F)CC1)c1cn(CC(=O)N2CCOCC2)c2ccccc12 | 9.92
6 | CC1CCN(C(c2ccc(N(C)C)cc2)c2nnnn2Cc2ccccc2)CC1 (centres unmarked) | 4.98
7 | C=CCn1c(SCC(=O)Nc2ccc(N3CCOCC3)cc2)nnc1-c1ccco1 | 8.51
8 | O=C(CCS(=O)(=O)c1ccc(Br)cc1)Nc1ccc2c(c1)OCO2 | -1.98
9 | Cn1nnnc1SCC(=O)NCc1ccco1 | -5.51
10 | CC(=O)c1cc(CN2CCC(n3nccc3NC(=O)c3ccccc3Cl)CC2)cs1 | -40.5
11 | CCOC(=O)C1CCN(/C=C2/C(=O)NC(=O)N(c3cccc(C)c3C)C2=O)CC1 | 12.6
12 | COc1ccc2nc(-c3ccccc3)cc(C(=O)OCC(=O)N3CCCCC3)c2c1 | 2.2
13 | CCOc1cc2[nH]c(=S)n(Cc3ccc(C(=O)NCCCN(CC)CC)cc3)c(=O)c2cc1OCC | 11.9
14 | CC(Sc1nnc(-c2ccccc2F)n1C1CC1)C(=O)NCc1ccco1 (centres unmarked) | 0.136
15 | CCOCCCNC(=O)c1ccc(Cn2c(=S)[nH]c3c([nH]c4ccc(OC)cc43)c2=O)cc1 | 17.5
16 | CCCNC(=O)C1Cc2cc(S(=O)(=O)N3CCCC3)ccc2N1C(C)=O (centres unmarked) | 11.3
17 | COc1ccc(Cl)cc1NC(=O)CNCC(c1ccccc1)N(C)C.O=C(O)C(=O)O (centres unmarked) | -49.3
18 | COc1cc2c(cc1NC(=S)Nc1cccc(C)c1)oc1ccccc12 | 6.46
19 | Nc1ccc2c(c1)C/C(=C/c1ccco1)C2=O | 11

Row | Compound | hERG current change (%, negative = inhibition) at 1uM [%]
20 | CN(Cc1nc2ccc(F)cc2[nH]1)C(=O)C1CCC(=O)N(C2CC2)C1 (centres unmarked) | -7.32
21 | COc1ccc(S(=O)(=O)Nc2cc(C)on2)cc1NC(C)=O | 13.8
22 | CC1(C)CC(=O)C2=C(C1)OC(N)=C(C#N)C2c1ccoc1 (centres unmarked) | 8.2
23 | CC1CCN(CC(=O)Nc2ccc(Cl)cc2[N+](=O)[O-])CC1 | 13.6
24 | CC1(OC(=O)c2ccco2)C(=O)C=C2C=C(c3ccc(C#N)cc3)OC=C2C1=O (centres unmarked) | 7.63
25 | CC(OC(=O)CCCN=C1NS(=O)(=O)c2ccccc21)C(=O)Nc1ccc(F)cc1Cl (centres unmarked) | -6.51
26 | COc1ccc(S(=O)(=O)NCc2cccnc2)cc1C(=O)Nc1ccccc1 | -9.32
27 | COC(=O)c1ccc2nc(Nc3nc4c(F)cc(F)cc4s3)sc2c1 | 9.37
28 | O=C(Nc1ccc2c(c1)Cc1ccccc1-2)c1ccccc1F | 13.9
29 | CCc1nonc1NC(=O)c1oc2ccccc2c1C | 11.8
30 | O=C(CSc1nnc(CSc2nc3ccccc3s2)o1)NC1CCCCC1 | 9.83
31 | CCCC(c1nnnn1CCc1ccccc1)N1CCN(C(=O)c2ccco2)CC1 (centres unmarked) | -16.4
32 | Cc1ccc(NC(=O)CN2C(=O)NC(C)(CCc3ccccc3)C2=O)cc1 (centres unmarked) | 7.22
33 | COc1ccccc1N1CN(Cc2ccccc2)CNC1=S | 13.4
34 | Cc1ccc(-c2noc(C3CCCN(C(=O)c4ccc(Cl)cc4)C3)n2)o1 (centres unmarked) | -1.55
35 | COc1ccc(OC)c(N=Cc2c(O)c3ccccc3oc2=O)c1 | 11.2
36 | CC(C)CSc1ncnc2c1oc1nc3c(cc12)COC(C)(C)C3 | 3.38
37 | Cc1nnc(SCC(=O)Nc2nccs2)s1 | 17
38 | O=C(/C=C/c1c(F)cccc1Cl)N1CCOCC1 | 13.8

Row | Compound | hERG current change (%, negative = inhibition) at 1uM [%]
39 | CC(=O)Nc1ccc(CC(=O)NCCC(c2ccccc2)c2ccccc2)cc1 | 12.8
40 | CC(NC(=O)Cn1cc(Br)c([N+](=O)[O-])n1)c1ccccc1 (centres unmarked) | 11
41 | CC(=O)c1cccc(N(CC(=O)Nc2cc(C)cc(C)c2)S(C)(=O)=O)c1 | 16
42 | Cc1cc(NC(=O)CCC(=O)N(c2ccc(F)cc2)C2(C(=O)NC3CCCCC3)CCCC2)no1 | 11.4
43 | O=S(=O)(c1ccc(Cl)cc1)N1c2ccccc2Oc2nc3ccccc3nc21 | 10.4
44 | CSc1cccc(NC(=O)CCCOc2ccccc2)c1 | 11.5
45 | O=[N+]([O-])c1ccc2oc(C(O)c3cccc(Cl)c3)cc2c1 (centres unmarked) | 15.8
46 | CCOc1ncccc1C(=O)Nc1ccc(-c2ccc3nnc(C)n3n2)cc1 | 12.5
47 | O=C(C1CCN(S(=O)(=O)c2ccc(-n3cnnn3)cc2)CC1)N1CCN(c2ccccc2)CC1 | -16.1
48 | CC1(C)NC(=O)N(CCOCCOc2ccc3ccccc3c2Br)C1=O | 15.9
49 | C=CCn1c(-c2cccnc2)n[nH]c1=S | 16.1
50 | Cc1nc(C)c(-c2ccc(SCc3ccccc3C)nn2)s1 | 12.5
51 | CN1/C(=C\C=C2C(=O)NC(=O)NC2=O)C(C)(C)c2ccccc21 | 10.7
52 | CNC(=O)COc1ccc(Nc2nnc(-c3ccc(C)c(S(N)(=O)=O)c3)c3ccccc23)cc1 | 8.95
53 | Cc1cc(C(C#N)c2cccc(Cl)c2)n2ncnc2n1 (centres unmarked) | 11.8
54 | CC(=O)N1CCN(c2ccc(NC(=S)NC(=O)/C=C/c3ccccc3)cc2)CC1 | 12.5
55 | C=CCOc1ccc(/C=C/C(=O)OCC(=O)NCCc2ccccc2)cc1 | 13.3
56 | CCCNC(=O)C1CC(=O)N(c2ccc(OCC(=O)Nc3cccc(C)c3C)cc2)C1 (centres unmarked) | 11
